Data taken from the supplement of paper PMC3334620.
Whole data set: some 33,000 sequences, median “E-score (-0.5 to 0.5)” near -0.04, cut for the highest 2% near 0.36. The list shows a part of the results.

Target: T1, Hmlalpha2 (UniProt P0CY09)
T1 sequence: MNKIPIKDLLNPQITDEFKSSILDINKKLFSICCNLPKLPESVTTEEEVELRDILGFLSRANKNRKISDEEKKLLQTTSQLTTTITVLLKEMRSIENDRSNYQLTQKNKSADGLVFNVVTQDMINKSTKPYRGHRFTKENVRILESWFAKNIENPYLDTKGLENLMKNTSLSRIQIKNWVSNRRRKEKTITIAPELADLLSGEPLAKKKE
Assay: PBM E-score (8-mer binding enrichment) (E-score (-0.5 to 0.5)); higher = stronger / more preferred TF binding; most listed sequences are background and not binding sites
Settings: protein concentration: 200 nM; construct: GST-full length
In short: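 Yeast transcription factors carrying a GST tag, as full-length proteins or DNA-binding domains, were produced by PURExpress in vitro transcription/translation. About 100-200 nM protein was applied to universal all-10-mer Agilent arrays, double-stranded by primer extension on fresh or once-stripped slides. Bound protein was detected with fluorescent anti-GST, and scans were normalised with masliner. The Universal PBM Analysis Suite gave each ungapped eight-base word, pooled with its reverse complement, an E-score, a modified Wilcoxon-Mann-Whitney statistic.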

Row | Sequence | PBM E-score
1 | CGCGGGGC | -0.117
2 | AATATAGC | -0.0955
3 | AGAAGAAA | 0.0158
4 | ACTAGAGC | -0.161
5 | CAGCCGCC | -0.333
6 | GCTCTCGA | -0.111
7 | ACATAGGA | 0.218
8 | GAGGTCCC | -0.299
9 | TACTAGTA | 0.356
10 | TGCGCACA | 0.0807
11 | AATTATCG | 0.13
12 | ATATTACC | 0.187
13 | GCCCCTTA | -0.258
14 | GCCCTAAA | -0.24
15 | ACTCTTCG | -0.0072
16 | CTACTGTC | -0.219
17 | ACTCCAGT | -0.275
18 | GAGTTTAC | 0.24
19 | ACCAAACG | -0.0998
20 | ACTAACAT | 0.361
21 | AGTACGAG | -0.0225
22 | CGACTTAG | -0.119
23 | AACGGCGT | 0.0517
24 | GCTAACTA | 0.0741
25 | CGGTTCGC | -0.104

Row | Sequence | PBM E-score
26 | AAGGCGTA | 0.0716
27 | CCAAATGG | -0.0465
28 | CGAGCAGC | -0.0224
29 | GAGGATCA | -0.143
30 | GTGGTTGA | 0.00853
31 | TGCGGCCA | -0.134
32 | AATTTAGT | 0.059
33 | AGATGGAA | -0.0848
34 | ACGTAGGG | -0.184
35 | GCTTCGAC | -0.0494
36 | ATAGGCTG | -0.0654
37 | ACTATGTC | 0.165
38 | AGCCTTGC | -0.299
39 | AGTCAGGG | -0.16
40 | CCTGAGGA | -0.172
41 | CAAGTGGA | -0.152
42 | AAACTTTA | 0.193
43 | CGTACTAC | 0.168
44 | AATCTGGT | -0.0491
45 | CACAACAA | 0.233
46 | AGCCGGAT | -0.228
47 | GAAACTTA | 0.163
48 | CGTAGAAA | 0.31
49 | AGATTCAT | -0.0303
50 | AGGAAGCA | -0.161

Row | Sequence | PBM E-score
51 | AGTTTTTA | 0.243
52 | TGAACCCA | -0.0905
53 | CAGTCGCC | -0.418
54 | AATAGGTG | -0.147
55 | ACCCCTAC | -0.158
56 | CTTGGACA | -0.198
57 | AAAAACAT | 0.297
58 | CTTACACC | 0.0787
59 | AGCCCTAT | -0.198
60 | GCTCAGCA | 0.0776
61 | TAGTCCGA | -0.111
62 | GACCAAAC | -0.11
63 | AAGTATTA | 0.163
64 | ACACCCGC | 0.141
65 | AGAGGAGC | -0.15
66 | AACAGTTA | -0.0642
67 | CCGCGAAC | -0.26
68 | AATCCATG | 0.0986
69 | ACGCGCCG | 0.0827
70 | AAATTCAT | 0.171
71 | ATCGTCCG | -0.0155
72 | CACCCGTA | -0.162
73 | ACTTCATG | -0.0582
74 | ACAGCCAC | -0.0654
75 | CACCCTGG | -0.193

Row | Sequence | PBM E-score
76 | CCTCATGC | -0.294
77 | AGGGCACT | -0.306
78 | GAGGGAAA | -0.225
79 | GCTACGCC | -0.226
80 | CTCCCATA | -0.223
81 | ATCTCTTG | -0.19
82 | ATTGCAGA | 0.07
83 | CCGTAACC | -0.148
84 | CCCAGACG | -0.234
85 | ACTCTGAG | -0.078
86 | CCCCTTTA | -0.0823
87 | ACCATGGT | -0.0519
88 | CGGTCGTC | -0.261
89 | CACGGGAA | -0.00621
90 | ATACTCTC | 0.0862
91 | CCCCCACC | -0.38
92 | GAGAACCA | -0.0127
93 | ATACCCCC | -0.311
94 | CGGGAAAC | 0.0207
95 | AGGCTCAG | -0.0848
96 | CCTAGGTA | -0.0267
97 | GGCGGAAA | -0.136
98 | CAAGTGAA | 0.0541
99 | TGAACGAA | -0.0603
100 | ATACACCC | 0.112

Row | Sequence | PBM E-score
101 | TAGAACGA | 0.141
102 | ACTCACCC | -0.232
103 | ACTCCGCC | -0.252
104 | AGGTTCGC | -0.226
105 | AATATGTA | 0.386
106 | ACGACAGG | 0.0531
107 | AGCGTTGC | -0.0149
108 | AAGAGAAG | 0.0484
109 | AGTCAGAG | -0.19
110 | TAATCGCA | 0.251
111 | AGTGTTGC | 0.169
112 | CAACGGCG | -0.191
113 | TAATTAAA | 0.234
114 | GGAGTCCA | 0.00097
115 | CATCCCTC | -0.257
116 | ATCATTGG | 0.0413
117 | TAAATGCA | 0.157
118 | AGGTTCCA | -0.15
119 | CCTCCAGA | -0.202
120 | AATGCGGT | -0.186
121 | AGGCAGAT | -0.103
122 | ACTCGGGG | -0.134
123 | ACATCGCT | 0.166
124 | CGGCAAAC | -0.0643
125 | GGACTGTA | 0.0258

Row | Sequence | PBM E-score
126 | AAAGTGTT | 0.249
127 | GCTCAGGA | 0.0897
128 | ACGAAGTA | 0.0396
129 | CGTTTTAG | 0.00371
130 | GGACCACA | -0.183
131 | CAGCTTCG | -0.0555
132 | GCGAGTTA | 0.173
133 | GACTTCGA | -0.0227
134 | CGCAACCG | -0.176
135 | GATTTAGA | -0.00065
136 | AGTCCGCC | -0.349
137 | CACGTACA | 0.239
138 | ATAGTAAG | 0.0718
139 | AGCGAGGC | -0.192
140 | CGGGGTGA | -0.138
141 | AAGCGTAC | 0.0656
142 | ATAGGATG | 0.0195
143 | AATCTATA | 0.165
144 | CATTGGAC | -0.0849
145 | AGCCTACG | 0.0399
146 | CGTAAATC | 0.227
147 | TGAGGCCA | -0.0692
148 | CCTTTTTA | 0.156
149 | CGAGGTTA | 0.0651
150 | ACTGTGCA | -0.0426

Row | Sequence | PBM E-score
151 | AAAACCTC | 0.00349
152 | GAGGGAGA | -0.338
153 | CGCCCTGC | -0.122
154 | ATTAAGCA | 0.0508
155 | CAGTGCTC | -0.133
156 | TCGGTGAA | -0.144
157 | AAGCTTAC | 0.182
158 | TAACATGA | 0.462
159 | TCCAATAA | 0.101
160 | AACGTACT | 0.229
161 | AAGCCCAG | -0.192
162 | ATAGCCTG | 0.00462
163 | AAGGCAAT | -0.138
164 | GGTGTTGA | 0.124
165 | CGCCCCGC | -0.177
166 | ACACATCC | 0.192
167 | GACTGCAA | -0.182
168 | ACATAGAC | 0.229
169 | AAAGGATT | 0.0208
170 | CAACCACA | 0.0845
171 | CTGACAAA | 0.162
172 | AAAGTGCT | -0.12
173 | AAAAGGCA | 0.0225
174 | ATACTGGA | 0.0598
175 | AGCACCGA | -0.016

Row | Sequence | PBM E-score
176 | GCACTCAA | -0.0912
177 | TGTACACA | 0.418
178 | ACCCCGGA | -0.0376
179 | ATTAAGAC | 0.0444
180 | CCTGATTC | -0.222
181 | CGCATAAA | 0.154
182 | ATATCACG | -0.0843
183 | GGTTGAAC | 0.081
184 | ACCTGGGC | -0.287
185 | AAGAATCA | -0.071
186 | CATTAACG | 0.277
187 | ACACATGT | 0.394
188 | GCGTGTCC | 0.142
189 | ATCCGCTA | -0.0493
190 | CATTCAGA | -0.125
191 | AACTTAAC | 0.248
192 | GCACGTGA | 0.0771
193 | ACTACTTG | 0.154
194 | ATTTCTAC | 0.234
195 | ATACCGTG | 0.0883
196 | GAAGCACA | 0.0477
197 | CAATCCCG | -0.0881
198 | CCCCGGGG | -0.346
199 | AGGGTATG | 0.0728
200 | ATGGACAA | 0.197

Row | Sequence | PBM E-score
201 | AGGCAGGC | -0.229
202 | ATTATCGC | -0.0544
203 | CCAATTCC | -0.0554
204 | AACTGTGG | 0.00645
205 | CGGAAAAA | -0.0751
206 | GAGAGGAA | -0.0668
207 | CGCGTCAG | -0.0471
208 | ATACTCAT | 0.127
209 | ACCAGAAC | -0.115
210 | ATTTAACA | 0.429
211 | AGAAAGGA | -0.139
212 | AATCAAAT | 0.0328
213 | AAGACGAC | -0.165
214 | AGCCAACC | -0.159
215 | TGAGATCA | 0.00951
216 | CTTCTTCC | -0.093
217 | ACCGGGGA | -0.139
218 | ACACTGCA | 0.0302
219 | ACGTTTGG | -0.019
